{
  "source": "patent US20240010697A1",
  "about": "(CYTIMM THERAPEUTICS, published 2024)",
  "binders": {"B1": {"name": "ACT5200, IL-2 mutein Y31C (ligand)", "chain": "not shown", "notes": "Not PEGylated; rhIL-2 (C125S) background; not shown: His-Tag"}, "B2": {"name": "ACT5201, IL-2 mutein Y31C (PEG20K) (ligand)", "chain": "not shown", "modifications": "maleimide-PEG 20K on Cys 31", "notes": "not shown: His-Tag"}, "B3": {"name": "IL-2 mutein N29C - PEG20 (ligand)", "chain": "not shown", "modifications": "maleimide-PEG 20K on Cys 29", "notes": "not shown: His-Tag"}},
  "key": {"[1]": {"target": "T1, IL-2Rα in a human Fc fusion protein format (ACROBiosystems) (human, UniProt P01589 22-213, limits assumed)", "T1 construct": "Bought reagent; also called CD25; not shown: human Fc (captured by anti-human IgG Fc)", "T1 sequence (looked up)": "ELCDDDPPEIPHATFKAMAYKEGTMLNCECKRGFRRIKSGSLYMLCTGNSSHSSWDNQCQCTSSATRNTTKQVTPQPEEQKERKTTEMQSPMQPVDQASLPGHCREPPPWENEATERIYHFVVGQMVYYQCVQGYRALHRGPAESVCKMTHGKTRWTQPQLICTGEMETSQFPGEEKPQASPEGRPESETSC", "assay": "Octet QKe (BLI), IL-2Rα-Fc on anti-human IgG Fc (AHC) sensors, 1:1 fit; analyte series 100, 50, 25, 12.5 (unit inferred)", "source_text": "(§1) IL-2Rα or IL-2Rβ in a human Fc fusion protein format (ACROBiosystems) were captured on anti-human IgG Fc capture (AHC) sensors. […] Dissociation was detected following transfer of sensors into wells containing buffer alone. Data were collected and analyzed by the Octet User Software. For analysis of the kinetics constants, a 1:1 curve fitting model was used."}, "[2]": {"target": "T1, IL-2Rα in a human Fc fusion protein …", "assay": "BLI (Octet QKe), IL-2Rα-Fc captured on AHC sensors, 1:1 fit", "source_text": "as §1"}, "[3]": {"target": "T1, IL-2Rα in a human Fc fusion protein …", "assay": "Octet QKe (BLI), IL-2Rα-Fc on anti-human IgG Fc (AHC) sensors, 1:1 fit; analyte series 400, 200, 100 (unit inferred)", "source_text": "as §1"}},
  "data": [
    {"binder": "B1", "values": [
      {"measurement": "Kd", "setting": "[1]", "value": 31.2, "unit": "nM"},
      {"measurement": "koff", "setting": "[1]", "value": 0.0125, "unit": "s⁻¹"},
      {"measurement": "kon", "setting": "[1]", "value": 400000, "unit": "M⁻¹ s⁻¹"}
    ]},
    {"binder": "B2", "values": [
      {"measurement": "Kd", "setting": "[2]", "value": 24.7, "unit": "nM"},
      {"measurement": "koff", "setting": "[2]", "value": 0.0152, "unit": "s⁻¹"},
      {"measurement": "kon", "setting": "[2]", "value": 615000, "unit": "M⁻¹ s⁻¹"},
      {"measurement": "Kd", "setting": "[3]", "value": 79.6, "unit": "nM"},
      {"measurement": "koff", "setting": "[3]", "value": 0.0441, "unit": "s⁻¹"},
      {"measurement": "kon", "setting": "[3]", "value": 554000, "unit": "M⁻¹ s⁻¹"}
    ]},
    {"binder": "B3", "values": [
      {"measurement": "Kd", "setting": "[2]", "value": 188, "unit": "nM"},
      {"measurement": "koff", "setting": "[2]", "value": 0.101, "unit": "s⁻¹"},
      {"measurement": "kon", "setting": "[2]", "value": 538000, "unit": "M⁻¹ s⁻¹"}
    ]}
  ]
}
